Source: the antibiotic and cytotoxicity screens of Wong et al. (2023)
The list shows a part of the results.

Key:
HSkMC = human skeletal muscle cells; test: cytotoxicity call (relative viability < 0.9); conditions: 10 µM
HepG2 = test: cytotoxicity call (relative viability < 0.9); conditions: 10 µM
S. aureus RN4220 = test: growth inhibition call (relative growth <= 0.2); conditions: 50 µM

Q: Which results are given for `C[C@@H]1CN([C@H](C)CO)C(=O)c2cc(NC(=O)Cn3cnnn3)ccc2O[C@@H]1CN(C)S(C)(=O)=O`?
A: cytotoxicity call (HSkMC): inactive; cytotoxicity call (HepG2): inactive; growth inhibition call (S. aureus RN4220): inactive

Q: For `C[C@@H]1CN([C@H](C)CO)C(=O)c2c(c3ccccc3n2C)-c2ccccc2CO[C@@H]1CN(C)S(=O)(=O)c1ccc(Cl)cc1`, which cytotoxicity call (HSkMC) is on record?
A: Its cytotoxicity call is “inactive”.

Q: What about the cytotoxicity call (HepG2) of the same compound?
A: Its cytotoxicity call is “inactive”.

Q: What about the growth inhibition call (S. aureus RN4220) of the same compound?
A: Its growth inhibition call is “inactive”.

Q: `CC(C)CC#Cc1ccc2c(c1)O[C@H](CN(C)C(=O)NC1CCCC1)[C@@H](C)CN([C@@H](C)CO)S2(=O)=O` was tested. Which cytotoxicity call (HSkMC) did it give?
A: The cytotoxicity call was “inactive”.

Q: And the cytotoxicity call (HepG2)?
A: The cytotoxicity call was “inactive”.

Q: And the growth inhibition call (S. aureus RN4220)?
A: Its growth inhibition call is “inactive”.

Q: `COc1ccc(S(=O)(=O)Nc2ccc3c(c2)C(=O)N([C@@H](C)CO)C[C@@H](C)[C@H](CN(C)C(=O)C2CCCCC2)OCCCC[C@@H](C)O3)cc1` was tested. Which cytotoxicity call (HSkMC) did it give?
A: The cytotoxicity call was “inactive”.

Q: And the cytotoxicity call (HepG2)?
A: The cytotoxicity call was “inactive”.

Q: And the growth inhibition call (S. aureus RN4220)?
A: Its growth inhibition call is “inactive”.

Q: `O=C(C[C@@H]1CC[C@H](NC(=O)c2ccc(F)cc2)[C@@H](CO)O1)NCc1ccncn1` was tested. Which cytotoxicity call (HSkMC) did it give?
A: The cytotoxicity call was “inactive”.

Q: What about the cytotoxicity call (HepG2) of the same compound?
A: The cytotoxicity call was “inactive”.

Q: What about the growth inhibition call (S. aureus RN4220) of the same compound?
A: Its growth inhibition call is “inactive”.

Q: With `COc1c(N2CCNC(C)C2)c(F)cc2c(=O)c(C(=O)O)cn(C3CC3)c12` (stereo not drawn) as the compound, how does the cytotoxicity call (HSkMC) read?
A: The cytotoxicity call was “inactive”.

Q: What about the cytotoxicity call (HepG2) of the same compound?
A: The cytotoxicity call was “active”.

Q: What about the growth inhibition call (S. aureus RN4220) of the same compound?
A: The growth inhibition call was “active”.

Q: Which results are given for `O=C(C[C@H]1C[C@@H]2c3cc(NS(=O)(=O)c4ccc(F)cc4)ccc3O[C@@H]2[C@H](CO)O1)NC1CCCC1`?
A: cytotoxicity call (HSkMC): inactive; cytotoxicity call (HepG2): inactive; growth inhibition call (S. aureus RN4220): inactive

Q: How did the cytotoxicity call (HSkMC) turn out when `COc1cccc(S(=O)(=O)Nc2ccc3c(c2)C(=O)N(C)C[C@@H](OC)[C@H](C)CN(C(=O)Cc2cccnc2)[C@@H](C)CO3)c1` was run?
A: Its cytotoxicity call is “inactive”.

Q: And the cytotoxicity call (HepG2)?
A: Its cytotoxicity call is “inactive”.

Q: And the growth inhibition call (S. aureus RN4220)?
A: The growth inhibition call was “inactive”.

Q: For `CC(C)n1cnnc1[C@@H](C)N`, which cytotoxicity call (HSkMC) is on record?
A: Its cytotoxicity call is “inactive”.

Q: What about the cytotoxicity call (HepG2) of the same compound?
A: Its cytotoxicity call is “inactive”.

Q: What about the growth inhibition call (S. aureus RN4220) of the same compound?
A: The growth inhibition call was “inactive”.

Q: With `COc1cc(-c2cc(=O)c3c(s2)N(Cc2ccco2)[C@@H](c2ccc(O)c(OC)c2)CC3=O)ccc1O` as the compound, how does the cytotoxicity call (HSkMC) read?
A: Its cytotoxicity call is “inactive”.

Q: And the cytotoxicity call (HepG2)?
A: Its cytotoxicity call is “inactive”.

Q: And the growth inhibition call (S. aureus RN4220)?
A: Its growth inhibition call is “inactive”.

Q: `C[C@H]1CN([C@@H](C)CO)S(=O)(=O)c2ccc(Br)cc2O[C@H]1CN(C)C(=O)Cc1ccccn1` was tested. Which cytotoxicity call (HSkMC) did it give?
A: Its cytotoxicity call is “inactive”.

Q: What about the cytotoxicity call (HepG2) of the same compound?
A: The cytotoxicity call was “inactive”.

Q: And the growth inhibition call (S. aureus RN4220)?
A: The growth inhibition call was “inactive”.

Q: How did the cytotoxicity call (HSkMC) turn out when `C[C@@H]1CN([C@@H](C)CO)C(=O)c2cccc(NC(=O)c3ccncc3)c2O[C@H]1CN(C)S(=O)(=O)c1ccc(F)cc1` was run?
A: Its cytotoxicity call is “inactive”.

Q: And the cytotoxicity call (HepG2)?
A: The cytotoxicity call was “inactive”.

Q: And the growth inhibition call (S. aureus RN4220)?
A: Its growth inhibition call is “inactive”.

Q: With `C=CCC[C@@H](Cc1ccc(F)cc1)C(=O)OC[C@H](Cc1c[nH]c2ccccc12)NC(=O)[C@@H](CC=C)CC(=O)N(CCO)Cc1ccccc1` as the compound, how does the cytotoxicity call (HSkMC) read?
A: Its cytotoxicity call is “inactive”.

Q: What about the cytotoxicity call (HepG2) of the same compound?
A: The cytotoxicity call was “inactive”.

Q: What about the growth inhibition call (S. aureus RN4220) of the same compound?
A: Its growth inhibition call is “inactive”.

Q: With `C[C@@H]1CN([C@H](C)CO)C(=O)c2cc(NC(=O)c3ccccc3)ccc2O[C@@H](C)CCCCO[C@H]1CN(C)C(=O)C1CCCCC1` as the compound, how does the cytotoxicity call (HSkMC) read?
A: Its cytotoxicity call is “inactive”.

Q: And the cytotoxicity call (HepG2)?
A: The cytotoxicity call was “inactive”.

Q: What about the growth inhibition call (S. aureus RN4220) of the same compound?
A: The growth inhibition call was “inactive”.

Q: With `CCCNC(=O)Nc1ccc2c(c1)OC[C@@H](C)N(C(=O)C1CCOCC1)C[C@@H](C)[C@@H](OC)CN(C)C2=O` as the compound, how does the cytotoxicity call (HSkMC) read?
A: The cytotoxicity call was “inactive”.

Q: And the cytotoxicity call (HepG2)?
A: The cytotoxicity call was “inactive”.

Q: And the growth inhibition call (S. aureus RN4220)?
A: The growth inhibition call was “inactive”.

Q: With `C[C@@H]1CCCCO[C@H](CN(C)C(=O)Nc2ccc3c(c2)OCO3)[C@@H](C)CN([C@H](C)CO)C(=O)c2cc(NC(=O)C3CCCCC3)ccc2O1` as the compound, how does the cytotoxicity call (HSkMC) read?
A: The cytotoxicity call was “inactive”.

Q: And the cytotoxicity call (HepG2)?
A: Its cytotoxicity call is “inactive”.

Q: And the growth inhibition call (S. aureus RN4220)?
A: The growth inhibition call was “inactive”.

Q: What does the source list for `C[C@@H]1CN([C@H](C)CO)C(=O)Cc2cc(NC(=O)Nc3cccc4ccccc34)ccc2O[C@@H]1CN(C)CC1CCCCC1`?
A: cytotoxicity call (HSkMC): inactive; cytotoxicity call (HepG2): active; growth inhibition call (S. aureus RN4220): inactive

Q: Which results are given for `C[C@H]1CN([C@@H](C)CO)C(=O)c2cc(NS(=O)(=O)c3ccc(F)cc3)ccc2O[C@H]1CN(C)C(=O)Nc1cccc2ccccc12`?
A: cytotoxicity call (HSkMC): inactive; cytotoxicity call (HepG2): inactive; growth inhibition call (S. aureus RN4220): inactive

Q: How did the cytotoxicity call (HSkMC) turn out when `Cc1ccc(S(=O)(=O)Nc2ccc3c(c2)CC(=O)N([C@@H](C)CO)C[C@@H](C)[C@H](CN(C)CC2CC2)O3)cc1` was run?
A: Its cytotoxicity call is “inactive”.

Q: And the cytotoxicity call (HepG2)?
A: The cytotoxicity call was “inactive”.

Q: What about the growth inhibition call (S. aureus RN4220) of the same compound?
A: Its growth inhibition call is “inactive”.

Q: With `C[C@H](CO)N1C[C@H](C)[C@@H](CN(C)S(=O)(=O)c2ccc(C#N)cc2)OCc2cn(nn2)CCCC1=O` as the compound, how does the cytotoxicity call (HSkMC) read?
A: The cytotoxicity call was “inactive”.

Q: What about the cytotoxicity call (HepG2) of the same compound?
A: The cytotoxicity call was “inactive”.

Q: What about the growth inhibition call (S. aureus RN4220) of the same compound?
A: Its growth inhibition call is “inactive”.

Q: With `C[C@@H]1CN([C@@H](C)CO)C(=O)Cc2cc(NS(=O)(=O)c3cccs3)ccc2O[C@@H]1CN(C)Cc1ccc(Cl)c(Cl)c1` as the compound, how does the cytotoxicity call (HSkMC) read?
A: The cytotoxicity call was “inactive”.

Q: And the cytotoxicity call (HepG2)?
A: The cytotoxicity call was “inactive”.

Q: And the growth inhibition call (S. aureus RN4220)?
A: Its growth inhibition call is “inactive”.

Q: With `Cc1ccc(S(=O)(=O)Nc2ccc3c(c2)CC(=O)N([C@H](C)CO)C[C@@H](C)[C@H](CN(C)S(=O)(=O)c2c(C)noc2C)O3)cc1` as the compound, how does the cytotoxicity call (HSkMC) read?
A: The cytotoxicity call was “inactive”.

Q: And the cytotoxicity call (HepG2)?
A: Its cytotoxicity call is “inactive”.

Q: And the growth inhibition call (S. aureus RN4220)?
A: The growth inhibition call was “inactive”.

Q: For `NC(=O)CSc1ncn(-c2ccccc2)n1`, which cytotoxicity call (HSkMC) is on record?
A: The cytotoxicity call was “inactive”.

Q: What about the cytotoxicity call (HepG2) of the same compound?
A: Its cytotoxicity call is “inactive”.

Q: What about the growth inhibition call (S. aureus RN4220) of the same compound?
A: The growth inhibition call was “inactive”.

Q: For `COc1ccc(S(=O)(=O)N(C)C[C@@H]2Oc3ccc(NC(=O)Nc4cccc5ccccc45)cc3C(=O)N([C@@H](C)CO)C[C@@H]2C)cc1`, which cytotoxicity call (HSkMC) is on record?
A: The cytotoxicity call was “inactive”.

Q: And the cytotoxicity call (HepG2)?
A: Its cytotoxicity call is “inactive”.

Q: And the growth inhibition call (S. aureus RN4220)?
A: Its growth inhibition call is “inactive”.

Q: `CO[C@@H]1CN(C)C(=O)c2cc(NS(C)(=O)=O)ccc2OC[C@H](C)N(S(C)(=O)=O)C[C@H]1C` was tested. Which cytotoxicity call (HSkMC) did it give?
A: Its cytotoxicity call is “inactive”.

Q: What about the cytotoxicity call (HepG2) of the same compound?
A: The cytotoxicity call was “inactive”.

Q: And the growth inhibition call (S. aureus RN4220)?
A: Its growth inhibition call is “inactive”.

Q: How did the cytotoxicity call (HSkMC) turn out when `C[C@@H]1CCCCO[C@H](CN(C)Cc2ccc(C(=O)O)cc2)[C@H](C)CN([C@H](C)CO)C(=O)c2cc(NC(=O)C3CCCCC3)ccc2O1` was run?
A: The cytotoxicity call was “inactive”.

Q: What about the cytotoxicity call (HepG2) of the same compound?
A: The cytotoxicity call was “inactive”.

Q: And the growth inhibition call (S. aureus RN4220)?
A: Its growth inhibition call is “inactive”.

Q: What does the source list for `COC(CNC(=O)C(=O)NC[C@H]1OCCN1C(=O)c1ccc2c(c1)OCO2)OC`?
A: cytotoxicity call (HSkMC): inactive; cytotoxicity call (HepG2): inactive; growth inhibition call (S. aureus RN4220): inactive

Q: With `CN1CCN(C(=O)C[C@H]2C[C@H]3c4cc(NC(=O)c5ccc6c(c5)OCO6)ccc4O[C@H]3[C@H](CO)O2)CC1` as the compound, how does the cytotoxicity call (HSkMC) read?
A: The cytotoxicity call was “inactive”.

Q: What about the cytotoxicity call (HepG2) of the same compound?
A: The cytotoxicity call was “inactive”.

Q: What about the growth inhibition call (S. aureus RN4220) of the same compound?
A: The growth inhibition call was “inactive”.

Q: How did the cytotoxicity call (HSkMC) turn out when `CN(C)Cc1nc(=O)c2ccccc2[nH]1` was run?
A: The cytotoxicity call was “inactive”.

Q: What about the cytotoxicity call (HepG2) of the same compound?
A: The cytotoxicity call was “inactive”.

Q: What about the growth inhibition call (S. aureus RN4220) of the same compound?
A: The growth inhibition call was “inactive”.

Q: What does the source list for `C[C@@H]1CN([C@@H](C)CO)C(=O)c2cc(C#CC3(O)CCCC3)cnc2O[C@@H]1CN(C)C(=O)C1CCCCC1`?
A: cytotoxicity call (HSkMC): inactive; cytotoxicity call (HepG2): inactive; growth inhibition call (S. aureus RN4220): inactive

Q: With `COc1ccc(cc1)CN1C[C@]2(CCN(CC2)S(=O)(=O)c2cn(cn2)C)c2c([nH]c3cc(ccc23)OC)[C@H]1CO` as the compound, how does the cytotoxicity call (HSkMC) read?
A: The cytotoxicity call was “inactive”.

Q: What about the cytotoxicity call (HepG2) of the same compound?
A: Its cytotoxicity call is “inactive”.

Q: What about the growth inhibition call (S. aureus RN4220) of the same compound?
A: Its growth inhibition call is “inactive”.
